Source: US5475132A, “Antifungal agents based on amides containing a phenyl group” (Rhone-Poulenc Agrochimie, priority 1988, dated 1995)

Experiments:
Plasmopara viticola = assay: Example B2: treatment of vine mildew (Plasmopara viticola) on vine cuttings; details: 192 h, 330 ppm (0.33 g/l), vine cuttings, 8 days after infection, read-out: inhibition of the development of the mould
Phytophthora infestans = assay: whole plant or invertebrate; details: in Solanum lycopersicum, 168 h, read-out: inhibition of the development of the mould
Experimental: Treatment of tomato mildew (Phytophthora infestans)
Tomato (Lycopersicum esculentum) plants, of the Marmande variety, are cultivated in pots. When these plants are a month old (5 to 6 leaf stage, height 12 to 15 cm), they are treated by spraying with a suspension or aqueous solution of the material to be tested, which is at the desired concentration and contains a surfactant which is a condensate of sorbitan monooleate with 20 molecules of ethylene oxide. This surfactant is at a concentration equal to half the concentration of the active material. Each tomato plant receives about 5 ml of the solution or dispersion. The treatment is carried out on two plants for each concentration of active material to be tested. Plants used as controls are treated with a solution which contains no active material, but contains the same surfactant at an identical concentration.
After drying for 24 hours, each plant is infected by spraying with an aqueous suspension of spores of Phytophthora infestans, which is responsible for tomato mildew, at a rate of about 5 ml/plant (that is about 50,000 spores per plant).
After this infection, the tomato plants are incubated for one day at about 15° C. in a saturated atmosphere, then for five days at about 17° C. and 70% to 90% relative humidity.
Seven days after infection, the results obtained in the case of plants treated with the active material to be tested are compared with those obtained in the case of plants used as controls.

Question: With `COc1ccc(-c2cc(-c3ccccc3)nc(C)c2C(=O)N2CCOCC2)cc1OC` [Compound 505, N-[4-(3,4-dimethoxyphenyl)-2-methyl-6-phenylnicotinoyl]morpholine] as the molecule, how does the inhibition at 330 ppm (Plasmopara viticola) read?
Answer: ≥ 80%

Question: And the inhibition at 1000 ppm (Phytophthora infestans)?
Answer: ≥ 80%

Question: What does the source list for `CCN(C)C(=O)c1c(-c2ccc(OC)c(OC)c2)cc(-c2ccccc2)nc1C` [Compound 506]?
Answer: inhibition at 330 ppm (Plasmopara viticola): ≥ 80%; inhibition at 1000 ppm (Phytophthora infestans): ≥ 80%

Question: For `COCCN(C)C(=O)c1c(-c2ccc(OC)c(OC)c2)cc(-c2ccccc2)nc1C` [Compound 507], which inhibition at 330 ppm (Plasmopara viticola) is on record?
Answer: ≥ 80%

Question: And the inhibition at 1000 ppm (Phytophthora infestans)?
Answer: ≥ 80%

Question: For `COc1ccc(-c2c(C(=O)N3CCOCC3)cc(-c3ccc(F)cc3)n2C)cc1OC` [Compound 607, 5-(4-fluorophenyl)-2-(3,4-dimethoxyphenyl)-1-methyl-3-(morpholinocarbonyl)pyrrole], which inhibition at 330 ppm (Plasmopara viticola) is on record?
Answer: ≥ 80%

Question: What about the inhibition at 1000 ppm (Phytophthora infestans) of the same molecule?
Answer: ≥ 80%

Question: Which inhibition at 330 ppm (Plasmopara viticola) does the source give for `COc1ccc(-c2c(C(=O)N3CCOCC3)cnn2-c2ccc(Cl)cc2)cc1OC` [Compound 608, 2-(4-Chlorophenyl)-3-(3,4-dimethoxyphenyl)-4-(morpholinocarbonyl)pyrazole] here?
Answer: ≥ 80%

Question: What about the inhibition at 1000 ppm (Phytophthora infestans) of the same molecule?
Answer: ≥ 80%

Question: With `COc1ccc(-c2c(C(=O)N3CCOCC3)cc(-c3ccc(Cl)cc3)n2C)cc1OC` [Compound 619] as the molecule, how does the inhibition at 330 ppm (Plasmopara viticola) read?
Answer: ≥ 80%

Question: What about the inhibition at 1000 ppm (Phytophthora infestans) of the same molecule?
Answer: ≥ 80%

Question: With `COc1ccc(-c2c(C(=O)N3CCOCC3)cc(-c3ccccc3)n2C)cc1OC` [Compound 621] as the molecule, how does the inhibition at 330 ppm (Plasmopara viticola) read?
Answer: ≥ 80%

Question: What about the inhibition at 1000 ppm (Phytophthora infestans) of the same molecule?
Answer: ≥ 80%

Question: Which results are given for `COc1ccc(-c2nc(-c3cccs3)ccc2C(=O)N2CCOCC2)cc1OC` [Compound 3113]?
Answer: inhibition at 330 ppm (Plasmopara viticola): ≥ 80%; inhibition at 1000 ppm (Phytophthora infestans): ≥ 80%

Question: Which inhibition at 330 ppm (Plasmopara viticola) does the source give for `CCN(C)C(=O)c1ccc(-c2ccsc2)nc1-c1ccc(OC)c(OC)c1` [Compound 3118] here?
Answer: ≥ 80%

Question: What about the inhibition at 1000 ppm (Phytophthora infestans) of the same molecule?
Answer: ≥ 80%

Question: For `CCN(CC)C(=O)c1ccc(-c2ccsc2)nc1-c1ccc(OC)c(OC)c1` [Compound 3119], which inhibition at 330 ppm (Plasmopara viticola) is on record?
Answer: ≥ 80%

Question: And the inhibition at 1000 ppm (Phytophthora infestans)?
Answer: ≥ 80%
